Laboratory results from the supplement of paper PMC4967469.
IC50 is the fitted dose that halves viability relative to control wells, and lower means more sensitive; where the fit passes the top or lowest dose, that dose stands as a limit. AUC, from the same fit, is the share of area under the viability curve across the 256-fold dose range; values near 1 show little effect.

Compound: Cn1c(=O)n(-c2ccc(C(C)(C)C#N)cc2)c2c3cc(-c4cnc5ccccc5c4)ccc3ncc21 [NVP-BEZ235]
Assay: Viability of human cancer cell lines after 72 h of drug (GDSC screen)
Experimental: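 Human cancer cell lines in 384-well plates, medium with 10% serum, drug for 72 h over a 256-fold dose range (nine 2-fold or five 4-fold steps up to the top dose). Adherent lines were fixed and stained with the nucleic acid dye Syto60, suspension lines read with resazurin; signal relative to control wells, capped at 0 and 100%. One two-parameter sigmoid per drug and line, fitted in a mixed model over all curves with the slope shared within a line.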

Compared with “OE21 (oesophagus, adherent, top dose 0.25 µM)”, “GA-10 (Burkitt lymphoma, suspension, top dose 0.25 µM)” is higher in AUC: 0.405 for the first, 0.499 for the second.

Going from “MEL-HO (melanoma, adherent, top dose 0.25 µM)” to “WM35 (melanoma, adherent, top dose 0.25 µM)”, the AUC falls from 0.57 to 0.531.

First: Capan-2 (pancreas, adherent, top dose 0.25 µM)
Second: NALM-6 (B-cell leukaemia, suspension, top dose 0.25 µM)
The AUC of the first is higher: 0.962 for the first, 0.679 for the second.

First: Caov-4 (ovary, adherent, top dose 0.25 µM)
Second: CMK (acute myeloid leukaemia, suspension, top dose 0.25 µM)
The AUC of the first is higher: 0.969 for the first, 0.864 for the second.

Compared with Hey (ovary, adherent, top dose 0.25 µM), “NB14 (neuroblastoma, adherent, top dose 0.25 µM)” is higher in AUC: 0.426 for the first, 0.722 for the second.

Compared with “LS-1034 (large intestine, adherent, top dose 0.25 µM)”, “CA46 (Burkitt lymphoma, suspension, top dose 0.25 µM)” is lower in AUC: 0.891 for the first, 0.803 for the second.

Going from “NY (osteosarcoma, adherent, top dose 0.25 µM)” to “UACC-257 (melanoma, adherent, top dose 0.25 µM)”, the AUC rises from 0.832 to 0.853.

Compared with “EHEB (lymphoid neoplasm, suspension, top dose 0.25 µM)”, “NCI-N87 (stomach, adherent, top dose 0.25 µM)” is higher in AUC: 0.698 for the first, 0.824 for the second.

Compared with “ES6 (Ewing sarcoma, adherent, top dose 0.25 µM)”, “KMS-11 (myeloma, suspension, top dose 0.25 µM)” is higher in AUC: 0.719 for the first, 0.738 for the second.

Compared with “HCT-15 (large intestine, adherent, top dose 0.25 µM)”, “Hs746T (stomach, adherent, top dose 0.25 µM)” is higher in AUC: 0.425 for the first, 0.823 for the second.

Going from “SNG-M (endometrium, adherent, top dose 0.25 µM)” to “BCPAP (thyroid, adherent, top dose 0.25 µM)”, the AUC falls from 0.749 to 0.543.

First: HT-1080 (fibrosarcoma, adherent, top dose 0.25 µM)
Second: BC-1 (B-cell lymphoma, suspension, top dose 0.25 µM)
The AUC of the first is lower: 0.575 for the first, 0.849 for the second.

First: COR-L88 (small cell lung carcinoma, adherent, top dose 0.25 µM)
Second: KARPAS-1106P (B-cell lymphoma, suspension, top dose 0.25 µM)
The AUC of the first is higher: 0.887 for the first, 0.545 for the second.

Compared with “P12-ICHIKAWA (T-cell lymphoblastic leukaemia, suspension, top dose 0.25 µM)”, “MZ2-MEL (melanoma, adherent, top dose 0.25 µM)” is lower in AUC: 0.88 for the first, 0.559 for the second.

Compared with “SNU-C2B (large intestine, adherent, top dose 0.25 µM)”, “CW-2 (large intestine, adherent, top dose 0.25 µM)” is higher in AUC: 0.79 for the first, 0.882 for the second.

Compared with “HuH-7 (liver, adherent, top dose 0.25 µM)”, “NCI-H727 (lung carcinoid, adherent, top dose 0.25 µM)” is higher in AUC: 0.538 for the first, 0.784 for the second.

Compared with “JVM-3 (lymphoid neoplasm, suspension, top dose 0.25 µM)”, “RCH-ACV (B-cell leukaemia, suspension, top dose 0.25 µM)” is lower in AUC: 0.675 for the first, 0.544 for the second.

Going from “LB996-RCC (kidney, adherent, top dose 2 µM)” to “QGP-1 (pancreas, adherent, top dose 0.25 µM)”, the AUC rises from 0.367 to 0.947.

Compared with “CRO-AP2 (B-cell lymphoma, suspension, top dose 0.25 µM)”, “DMS-273 (small cell lung carcinoma, adherent, top dose 0.25 µM)” is higher in AUC: 0.432 for the first, 0.709 for the second.

Work on “JHH-1 (liver, adherent, top dose 0.25 µM)” yielded an AUC of 0.704.

Compared with “OE21 (oesophagus, adherent, top dose 0.25 µM)”, “GA-10 (Burkitt lymphoma, suspension, top dose 0.25 µM)” is 2-fold higher in IC50: 7.79 nM for the first, 15.5 nM for the second.

“MEL-HO (melanoma, adherent, top dose 0.25 µM)” and “WM35 (melanoma, adherent, top dose 0.25 µM)” are within 1.5-fold of each other in IC50: 24.3 nM for the first, 19.1 nM for the second.

First: Capan-2 (pancreas, adherent, top dose 0.25 µM)
Second: NALM-6 (B-cell leukaemia, suspension, top dose 0.25 µM)
The IC50 of the first is higher: over 250 nM for the first, 45 nM for the second.

Compared with “Caov-4 (ovary, adherent, top dose 0.25 µM)”, “CMK (acute myeloid leukaemia, suspension, top dose 0.25 µM)” is lower in IC50: over 250 nM for the first, 166 nM for the second.

First: Hey (ovary, adherent, top dose 0.25 µM)
Second: NB14 (neuroblastoma, adherent, top dose 0.25 µM)
The IC50 of the first is 6.4-fold lower: 9.93 nM for the first, 63.7 nM for the second.

Compared with “LS-1034 (large intestine, adherent, top dose 0.25 µM)”, “CA46 (Burkitt lymphoma, suspension, top dose 0.25 µM)” is lower in IC50: over 250 nM for the first, 135 nM for the second.

First: NY (osteosarcoma, adherent, top dose 0.25 µM)
Second: UACC-257 (melanoma, adherent, top dose 0.25 µM)
The IC50 of the first is lower: 157 nM for the first, over 250 nM for the second.

First: EHEB (lymphoid neoplasm, suspension, top dose 0.25 µM)
Second: NCI-N87 (stomach, adherent, top dose 0.25 µM)
The IC50 of the first is 3.4-fold lower: 73.3 nM for the first, 248 nM for the second.

“ES6 (Ewing sarcoma, adherent, top dose 0.25 µM)” and “KMS-11 (myeloma, suspension, top dose 0.25 µM)” are within 1.5-fold of each other in IC50: 76.6 nM for the first, 66.2 nM for the second.

Compared with “HCT-15 (large intestine, adherent, top dose 0.25 µM)”, “Hs746T (stomach, adherent, top dose 0.25 µM)” is 23-fold higher in IC50: 9.61 nM for the first, 221 nM for the second.

Compared with “SNG-M (endometrium, adherent, top dose 0.25 µM)”, “BCPAP (thyroid, adherent, top dose 0.25 µM)” is 3.9-fold lower in IC50: 79.6 nM for the first, 20.2 nM for the second.

First: HT-1080 (fibrosarcoma, adherent, top dose 0.25 µM)
Second: BC-1 (B-cell lymphoma, suspension, top dose 0.25 µM)
The IC50 of the first is 6-fold lower: 24.5 nM for the first, 147 nM for the second.

First: COR-L88 (small cell lung carcinoma, adherent, top dose 0.25 µM)
Second: KARPAS-1106P (B-cell lymphoma, suspension, top dose 0.25 µM)
The IC50 of the first is higher: over 250 nM for the first, 20.3 nM for the second.

Going from “P12-ICHIKAWA (T-cell lymphoblastic leukaemia, suspension, top dose 0.25 µM)” to “MZ2-MEL (melanoma, adherent, top dose 0.25 µM)”, the IC50 falls from 161 nM to 23.3 nM (6.9-fold).

Going from “SNU-C2B (large intestine, adherent, top dose 0.25 µM)” to “CW-2 (large intestine, adherent, top dose 0.25 µM)”, the IC50 rises from 152 nM to over 250 nM.

First: HuH-7 (liver, adherent, top dose 0.25 µM)
Second: NCI-H727 (lung carcinoid, adherent, top dose 0.25 µM)
The IC50 of the first is 9.8-fold lower: 19.8 nM for the first, 194 nM for the second.

Going from “JVM-3 (lymphoid neoplasm, suspension, top dose 0.25 µM)” to “RCH-ACV (B-cell leukaemia, suspension, top dose 0.25 µM)”, the IC50 falls from 48.6 nM to 20.1 nM (2.4-fold).

First: LB996-RCC (kidney, adherent, top dose 2 µM)
Second: QGP-1 (pancreas, adherent, top dose 0.25 µM)
The IC50 of the first is lower: 50.5 nM for the first, over 250 nM for the second.

Compared with “CRO-AP2 (B-cell lymphoma, suspension, top dose 0.25 µM)”, “DMS-273 (small cell lung carcinoma, adherent, top dose 0.25 µM)” is 6-fold higher in IC50: 10.5 nM for the first, 63.4 nM for the second.

In the case of “JHH-1 (liver, adherent, top dose 0.25 µM)”, the IC50 is reported as 62.2 nM.
